The whole screen tested about 390,000 compounds, of which about 4,700 (1.2%) were called active. The inconclusive results got no clear call from the source; some entries with a clear call stand among them for comparison. Calls come from the whole dose curve; as a rule, active = well fitted inhibition curve with a large enough effect; inconclusive = small, poorly fitted or top-dose-only effect, or another doubt; inactive = no such curve, though single readings can be large or run the other way. Potencies of inconclusive entries are doubtful fits and often do not repeat.
Target: DNA polymerase eta (Homo sapiens) (UniProt Q9Y253)
Chain of UniProt Q9Y253 (Q9Y253 whole entry, looked up): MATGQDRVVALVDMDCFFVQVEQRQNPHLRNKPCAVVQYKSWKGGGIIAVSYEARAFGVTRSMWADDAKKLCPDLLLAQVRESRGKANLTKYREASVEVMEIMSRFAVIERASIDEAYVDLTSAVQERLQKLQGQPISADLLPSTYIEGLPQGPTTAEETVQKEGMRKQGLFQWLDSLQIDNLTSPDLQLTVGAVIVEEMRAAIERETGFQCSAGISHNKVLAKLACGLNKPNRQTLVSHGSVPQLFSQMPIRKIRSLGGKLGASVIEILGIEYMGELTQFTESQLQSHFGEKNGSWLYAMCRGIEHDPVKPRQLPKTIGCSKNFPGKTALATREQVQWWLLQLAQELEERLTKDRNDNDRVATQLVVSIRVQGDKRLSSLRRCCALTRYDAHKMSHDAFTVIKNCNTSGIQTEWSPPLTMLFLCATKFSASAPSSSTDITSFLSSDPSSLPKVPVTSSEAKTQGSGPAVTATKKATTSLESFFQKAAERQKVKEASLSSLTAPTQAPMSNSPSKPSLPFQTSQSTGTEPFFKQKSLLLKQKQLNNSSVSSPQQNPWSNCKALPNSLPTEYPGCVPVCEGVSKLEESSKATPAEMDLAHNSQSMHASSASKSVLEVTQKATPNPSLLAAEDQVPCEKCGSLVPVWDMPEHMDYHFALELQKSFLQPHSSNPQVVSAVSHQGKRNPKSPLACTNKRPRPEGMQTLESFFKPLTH
Test: qHTS for Inhibitors of Polymerase Eta
Settings: recombinant Pol eta, fluorescent DNA replication assay; series mostly up to 114 µM; activity change, negative = inhibition: at the top concentration
Outline: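 Pol eta (10 nM) was preincubated with compounds for 15 min at room temperature, after which fluorescent replication substrate (50 nM final) was added to start the reaction. Fluorescence was read kinetically at 0 and 10 min.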
% is set by controls: 0 for no effect and ±100 for the full control effect; potency is the fitted concentration of half-maximal effect; tags give direction and shape of the fitted curve.

Row | SMILES | Potency | activity change, negative = inhibition
1 | COc1cc(/C=N/NC(=O)C(Cc2c[nH]c3ccccc23)NC(=O)OCC(C)C)cc([N+](=O)[O-])c1O (stereo unspecified) | inconclusive: 79.4 µM [inhibitor, single point] | 
2 | CCOc1ccccc1-c1nc(-c2ccc(NC(=O)Cc3ccc(OC)cc3)cc2)no1 | inconclusive: 10 µM [inhibitor, partial curve, poor fit] | 
3 | Cc1cc(C(=O)CN2C(=O)C(=O)N(CCC3=CCCCC3)C2=O)c(C)n1C | inconclusive: 22.4 µM [inhibitor, partial curve, poor fit] | 
4 | COc1ccccc1OCCOc1ccc(/C=N/n2cnnc2)cc1 | inconclusive: 39.8 µM [inhibitor, partial curve, poor fit] | 
5 | Cc1ccc(-c2csc3nc(SCC(=O)Nc4ccc(Cl)c(C(=O)O)c4)[nH]c(=O)c23)cc1 | active: 39.8 µM | 
6 | C=CCCC1CN(Cc2ccco2)S(=O)(=O)c2c(F)cccc2O1 (stereo unspecified) | inconclusive: 44.7 µM [inhibitor, partial curve] | 
7 | CCOc1ccccc1NS(=O)(=O)c1ccc2[nH]c(=O)ccc2c1 | inconclusive: 50.1 µM [inhibitor, partial curve, poor fit] | 
8 | CCOC(=O)C1=C(O)/C(=C/c2ccc(-c3ccccc3C(=O)O)o2)SC1=Nc1ccc(C)cc1 | active: 22.4 µM | 
9 | COCCNC(=O)CCCN1C(=O)CCn2nc(-c3cccn3C)cc21 |  | inactive: -26.3%
10 | Cc1ccc(NC(=O)Cn2c(=O)n(CCC(=O)NC3CCN(Cc4ccccc4)CC3)c(=O)c3ccccc32)cc1 | inconclusive: 100 µM [inhibitor, partial curve, poor fit] | 
11 | CCOC(=O)N1CCN(c2c(NCCc3ccccc3)c(=O)c2=O)CC1 |  | inactive: -12.6%
12 | C[C@@H](NC(=O)c1nc[nH]c1C(=O)NCC(=O)OC(C)(C)C)c1ccccc1 | inconclusive: 89.1 µM [inhibitor, partial curve, poor fit] | 
13 | Cc1ccc(-n2c(C)nn(Cc3ccc([N+](=O)[O-])cc3)c2=O)cc1 |  | inactive: -14%
14 | Cc1ccc(C)c(NC(=O)CN(C)C(=O)c2ccc(S(=O)(=O)N(C)c3ccccc3)cc2)c1 | inconclusive: 89.1 µM [inhibitor, partial curve, poor fit] | 
15 | CCOc1ccc(NS(=O)(=O)c2ccc3[nH]cc(C(=O)NCCOC)c(=O)c3c2)cc1 | inconclusive: 39.8 µM [inhibitor, partial curve, poor fit] | 
16 | O=C(Nc1nccs1)c1cccc(N2C(=O)c3cccc4c([N+](=O)[O-])ccc(c34)C2=O)c1 | inconclusive: 17.8 µM [inhibitor, full curve] | 
